Reference: PubChem BioAssay (Tox21)
The shares of active, inactive and inconclusive entries below differ from those in the screen. For some of these results: Potencies of inconclusive entries are left out as doubtful fits. The source made the active and inactive calls. Unless noted, calls follow the shape of the dose curve; as a rule, active = well fitted curve in the direction sought with a large enough effect in the repeat runs; inconclusive = weak or mixed curves; inactive = no such curve, though single readings can be large; an effect the other way counts as inactive or inconclusive.

Key:
[1] = biological target: Peroxisome proliferator-activated receptor delta (Homo sapiens) (UniProt Q03181); experiment: qHTS assay to identify small molecule agonists of the peroxisome proliferator-activated receptor delta (PPARd) signaling pathway (AID 743212; calls by dose curve); settings: HEK293H PPARd-UAS-bla, beta-lactamase FRET ratio, 17 h; series mostly up to 62.6 µM
Procedure, shortened: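 GeneBLAzer PPARd UAS-bla HEK293H cells (beta-lactamase reporter under UAS control), plated and rested 5 h at 37 C, then exposed to compounds in DMSO at 37 C; LiveBLAzer B/G FRET substrate added, 2 h room temperature, fluorescence read.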

[2] = qHTS assay to identify small molecule agonists of the constitutive androstane receptor (CAR) signaling pathway - cell viability counter screen (AID 1224836); settings: HepG2-CYP2B6-hCAR viability, CellTiter-Fluor, 23 h, PK11195 added to every well; series mostly up to 92.4 µM; also: nearly all actives have a fitted effect of over 45% in size; also: potency is read from the fitted curve at half-maximal effect
Procedure, shortened: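 23 h treatment, 37 C, 5% CO2. Cell line: HepG2 stably expressing hCAR with a CYP2B6-2.2kb construct. Co-treatment: PK11195, 0.75 uM final. Read-out: CellTiter-Fluor fluorescence intensity.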

[3] = qHTS assay to identify small molecule antagonists of the retinoic acid receptor (RAR) signaling pathway (AID 1159552; also: potency is read from the fitted curve at half-maximal effect; nearly all actives have a fitted effect of over 50% in size); settings: C3RL4 RARE luciferase reporter, retinol-stimulated, 6 h; series mostly up to 92.4 µM
Procedure, shortened: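 Test chemicals and DMSO controls were pin-transferred onto C3RL4 cells a day after seeding; retinol (1 uM final) followed at once. Luminescent reporter output was quantified after 6 hr of co-incubation and 30 min with detection reagent.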

[4] = qHTS assay to identify small molecule antagonists of the constitutive androstane receptor (CAR) signaling pathway - cell viability counter screen (AID 1224837); settings: HepG2-CYP2B6-hCAR viability, CellTiter-Fluor, 23 h, co-treated with 50 nM CITCO; series mostly up to 92.4 µM; also: potency is read from the fitted curve at half-maximal effect; nearly all actives have a fitted effect of over 45% in size
Procedure, shortened: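 HepG2-CYP2B6-hCAR cells, 2500/well, 4 hr pre-incubation; compound titration, 15 conc.; CITCO 50 nM final; 23 hr, 37 C/5% CO2; CellTiter-Fluor, fluorescence intensity.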

[5] = biological target: Nuclear receptor subfamily 1 group I member 3 (Homo sapiens) (UniProt Q14994); experiment: qHTS assay to identify small molecule antagonists of the constitutive androstane receptor (CAR) signaling pathway (AID 1224838); settings: HepG2-CYP2B6-hCAR luciferase, CITCO-stimulated, 24 h; series mostly up to 92.4 µM;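 also: HepG2 cells stably expressing hCAR with CYP2B6 luciferase reporter stimulated by CITCO; potency is read from the fitted curve at half-maximal effect; nearly all actives have a fitted effect of over 40% in size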
Procedure, shortened: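 HepG2-CYP2B6-hCAR cells; 4 h pre-incubation; cpd (15 conc) + CITCO 50 nM final; 24 h, 37 C/5% CO2; ONE-Glo, luminescence.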

[6] = qHTS assay to identify small molecule antagonists of the estrogen related receptor signaling pathway with the pleiotropic PPARgamma coactivator (PGC) from Tox21 10K library - cell viability counter screen (AID 1224840; active = well fitted cell-killing curve with a large enough effect in the repeat runs, not every such curve was filed as active; inconclusive = weak or mixed curves, or effect the other way; inactive = no such curve, though single readings can be large or run the other way; also: potency is read from the fitted curve at half-maximal effect; nearly all actives have a fitted effect of over 40% in size); settings: PGC/ERR reporter cells viability, CellTiter-Fluor, 17.5 h; series mostly up to 92.4 µM
Procedure, shortened: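 PGC/ERR cells, 2,000/well; 6 h pre-incubation 37 C/5% CO2; cpd in DMSO via pin tool; 17.5 h 37 C; CellTiter-Fluor, 30 min; fluorescence.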

[7] = qHTS assay to identify small molecule antagonists of the estrogen related receptor (ERR) signaling pathway from Tox21 library (AID 1224848); settings: ERR reporter cell line, luciferase antagonist mode, 18 h; series mostly up to 92.4 µM; also: potency is read from the fitted curve at half-maximal effect; nearly all actives have a fitted effect of over 50% in size
Procedure, shortened: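 Cells: ERR line, 2,000/well; 6 h preincubation 37 C/5% CO2. Cpd in DMSO via pin tool; 18 h, 37 C. ONE-Glo, 30 min RT, luminescence.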

[8] = A CellTox Green Cytotoxicity Assay to monitor cytotoxicity in HepG2 cells - 24 hour (AID 1224878); settings: CellTox Green fluorescence; series mostly up to 76.8 µM; also: nearly all actives have a fitted effect of over 45% in size; also: potency is read from the fitted curve at half-maximal effect
Procedure, shortened: (§1)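 Read-out is fluorescence of a cyanine dye excluded from live cells that stains DNA of dead HepG2 cells, with signal proportional to cytotoxicity. Plates were read at 0, 8, 16, 24, 32 and 40 h after compound addition.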

[9] = A CellTox Green Cytotoxicity Assay to monitor cytotoxicity in HEK293 cells - 32 hour (AID 1224881); settings: CellTox Green fluorescence; series mostly up to 76.8 µM; also: potency is read from the fitted curve at half-maximal effect; nearly all actives have a fitted effect of over 40% in size
Procedure, shortened: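 Nonlytic real-time cytotoxicity: HEK293 + CellTox Green reagent plated, 5 h preincubation, pintool compound addition (23 nL in DMSO), 37 C for 40 h, fluorescence measured at successive time points.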

[10] = qHTS assay to identify small molecule agonists of the estrogen receptor alpha (ER-alpha) signaling pathway in the presence of an antagonist - cell viability counter screen (AID 1259386); settings: VM7Luc4E2 viability, CellTiter-Fluor fluorescence, 22 h; series mostly up to 92.4 µM;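 also: cells exposed to compounds for 22 h at 37 °C before the viability read; nearly all actives have a fitted effect of over 30% in size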; also: potency is read from the fitted curve at half-maximal effect
Procedure, shortened: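 VM7Luc4E2, stripped-serum pre-culture 5 d; 24hr plating; +ICI-182,780 10.0nM final; cpds 15 conc, 22hr, 37C/5% CO2; CellTiter-Fluor added at 21hr, fluorescence 1hr later.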

[11] = qHTS assay to identify small molecule agonists of the TGF-beta/Smad signaling pathway (AID 1346859; active = well fitted activation curve with a large enough effect in the signal ratio in the repeat runs, not every such curve was filed as active; inconclusive = weak or mixed curves; the % refers to the signal ratio; also: potency is read from the fitted curve at half-maximal effect); settings: SBE-bla HEK293T, TGF-beta/Smad beta-lactamase reporter, 5 h; series mostly up to 76.8 µM
Procedure, shortened: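 Screening used HEK 293T SBE-bla cells at 4,000/well. Test agents: 5 hr, 37 C. Detection: FRET substrate, 2 hr RT, then excitation 405 nm with emissions at 460 and 530 nm.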

[12] = biological target: Cytochrome P450 3A4 (Homo sapiens) (UniProt P08684); experiment: Cytochrome P450 Family 3 Subfamily A Member 4 (CYP3A4) small molecule antagonists: luciferase reporter qHTS assay (AID 1671201); settings: P450-Glo CYP3A4 enzyme, luciferin luminescence, 1 h; series mostly up to 115 µM; also: nearly all actives have a fitted effect of over 50% in size; also: potency is read from the fitted curve at half-maximal effect
Procedure, shortened: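 CYP3A4 activity was followed with a P450-Glo proluciferin substrate. Test compounds in DMSO were preincubated 10 min; NADPH regeneration then ran 1 h, and light output was read 20 min after detection reagent.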

[13] = qHTS assay to identify small molecule antagonists of the thyroid receptor (TR) signaling pathway (AID 743065); settings: GH3.TRE-Luc, T3-stimulated luciferase inhibition, 23.5 h; series mostly up to 70.3 µM; also: potency is read from the fitted curve at half-maximal effect; nearly all actives have a fitted effect of over 55% in size
Procedure, shortened: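 GH3.TRE-Luc rat pituitary cells carrying two TR response elements driving luciferase were plated for 4 h, given compound plus 1 nM T3 (final), and incubated 23.5 h at 37 C. ONE-Glo luminescence measured reporter inhibition; CellTiter-Fluor fluorescence tracked cytotoxicity.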

[14] = qHTS assay to identify small molecule antagonists of the androgen receptor (AR) signaling pathway - cell viability counter screen (AID 743033; also: nearly all actives have a fitted effect of over 45% in size); settings: AR-bla HEK293 viability, CellTiter-Glo luminescence, 16 h; series mostly up to 58.5 µM
[15] = qHTS assay for small molecule activators of the heat shock response signaling pathway - cell viability counter screen (AID 743209); settings: HSE-bla HeLa viability, CellTiter-Glo luminescence, 5 h; series mostly up to 62.6 µM; also: nearly all actives have a fitted effect of over 50% in size
Procedure, shortened: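 Luminescence from CellTiter-Glo, added after the beta-lactamase FRET read, gave the viability signal. Cells were HSE-bla HeLa treated with DMSO-dissolved compounds for 5 h at 37 C following overnight plating.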

[16] = biological target: Voltage-gated inwardly rectifying potassium channel KCNH2 (Homo sapiens) (UniProt Q12809); experiment: Human Ether-a-go-go-Related Gene (hERG) channel small molecule antagonists: fluorescence cell-based qHTS assay (AID 1671200); settings: hERG-U2OS cells, FluxOR thallium flux fluorescence; series mostly up to 76.8 µM
Procedure, shortened: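 In this thallium-flux screen, overnight-cultured U2OS cells bearing the channel are dye-loaded in darkness for an hour, rested 10 min at room temperature, and then monitored kinetically at 480/540 nm for two minutes post-stimulus.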

[17] = A CellTox Green Cytotoxicity Assay to monitor cytotoxicity in HepG2 cells - 32 hour (AID 1224883); settings: CellTox Green fluorescence; series mostly up to 76.8 µM
Procedure, shortened: as §1

[18] = biological target: Estrogen receptor (Homo sapiens) (UniProt P03372); experiment: qHTS assay to identify small molecule antagonists of the estrogen receptor alpha (ER-alpha) signaling pathway (AID 743069; active = well fitted curve in the direction sought with a large enough effect in the signal ratio in the repeat runs, not every such curve was filed as active; inconclusive = weak or mixed curves, or effect the other way; inactive = no such curve, though single readings can be large or run the other way; the % refers to the signal ratio); settings: HEK293 ER-alpha-UAS-bla, beta-lactamase ratio, antagonist mode; series mostly up to 69.4 µM
Procedure, shortened: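 HEK293 cells stably carrying an ER-alpha-UAS-bla beta-lactamase reporter were pre-cultured overnight in 2% charcoal-stripped FBS medium. Test compounds in DMSO were added together with 17beta-estradiol for 18 hr at 37C. Read-out was fluorescence after 2 hr with LiveBLAzer B/G FRET substrate at room temperature.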

[19] = qHTS RealTime-Glo MT Cell Viability Assay in HEK293 cells - 40 hour (AID 1224874); settings: RealTime-Glo luminescence; max response: active compounds read low
Procedure, shortened: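 Cells were seeded together with NanoLuc luciferase and a prosubstrate that viable cells reduce to a luciferase substrate. After a 5 h incubation at 37 C/5% CO2, compounds were added and luminescence was measured repeatedly during 40 h of treatment.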
Tags tell the direction and shape of the fitted curve or compound fluorescence and quenching.

Sequence of UniProt P08684 (P08684 whole entry, looked up): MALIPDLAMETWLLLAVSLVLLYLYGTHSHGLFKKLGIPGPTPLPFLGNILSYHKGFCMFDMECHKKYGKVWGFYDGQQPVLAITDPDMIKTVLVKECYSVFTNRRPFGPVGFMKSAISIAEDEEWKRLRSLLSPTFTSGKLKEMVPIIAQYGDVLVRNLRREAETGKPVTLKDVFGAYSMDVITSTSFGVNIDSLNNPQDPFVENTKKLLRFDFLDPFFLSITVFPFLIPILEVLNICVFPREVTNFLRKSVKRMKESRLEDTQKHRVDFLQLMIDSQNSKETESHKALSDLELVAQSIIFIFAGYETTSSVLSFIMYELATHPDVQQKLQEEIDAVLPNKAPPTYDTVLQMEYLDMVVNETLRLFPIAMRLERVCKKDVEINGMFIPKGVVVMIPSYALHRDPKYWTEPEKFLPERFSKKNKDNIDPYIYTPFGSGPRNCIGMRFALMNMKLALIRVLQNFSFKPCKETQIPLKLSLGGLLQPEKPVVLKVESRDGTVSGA
Sequence of UniProt Q03181 (Q03181 whole entry, looked up): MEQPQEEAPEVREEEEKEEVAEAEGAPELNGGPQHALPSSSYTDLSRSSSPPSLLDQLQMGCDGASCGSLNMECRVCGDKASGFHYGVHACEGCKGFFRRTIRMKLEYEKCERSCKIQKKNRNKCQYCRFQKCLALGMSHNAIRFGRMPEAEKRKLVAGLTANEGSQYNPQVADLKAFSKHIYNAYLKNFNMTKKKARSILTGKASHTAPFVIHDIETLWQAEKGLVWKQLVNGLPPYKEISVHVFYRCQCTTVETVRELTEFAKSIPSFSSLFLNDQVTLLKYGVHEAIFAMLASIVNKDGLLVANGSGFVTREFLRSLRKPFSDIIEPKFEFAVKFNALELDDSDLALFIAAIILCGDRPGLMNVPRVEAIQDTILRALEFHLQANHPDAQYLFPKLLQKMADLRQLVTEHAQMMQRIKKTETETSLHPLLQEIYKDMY
Sequence of UniProt Q14994 (Q14994 whole entry, looked up): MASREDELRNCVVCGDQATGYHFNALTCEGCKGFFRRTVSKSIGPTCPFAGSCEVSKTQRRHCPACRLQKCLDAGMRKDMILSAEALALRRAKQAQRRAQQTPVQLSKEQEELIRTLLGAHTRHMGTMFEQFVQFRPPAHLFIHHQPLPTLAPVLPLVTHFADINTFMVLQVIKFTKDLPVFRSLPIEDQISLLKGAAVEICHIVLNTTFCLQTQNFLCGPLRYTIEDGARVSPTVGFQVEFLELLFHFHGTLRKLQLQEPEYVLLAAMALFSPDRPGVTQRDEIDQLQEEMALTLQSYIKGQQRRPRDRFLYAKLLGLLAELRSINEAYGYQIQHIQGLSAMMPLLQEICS
Sequence of UniProt Q12809 (Q12809 whole entry, looked up): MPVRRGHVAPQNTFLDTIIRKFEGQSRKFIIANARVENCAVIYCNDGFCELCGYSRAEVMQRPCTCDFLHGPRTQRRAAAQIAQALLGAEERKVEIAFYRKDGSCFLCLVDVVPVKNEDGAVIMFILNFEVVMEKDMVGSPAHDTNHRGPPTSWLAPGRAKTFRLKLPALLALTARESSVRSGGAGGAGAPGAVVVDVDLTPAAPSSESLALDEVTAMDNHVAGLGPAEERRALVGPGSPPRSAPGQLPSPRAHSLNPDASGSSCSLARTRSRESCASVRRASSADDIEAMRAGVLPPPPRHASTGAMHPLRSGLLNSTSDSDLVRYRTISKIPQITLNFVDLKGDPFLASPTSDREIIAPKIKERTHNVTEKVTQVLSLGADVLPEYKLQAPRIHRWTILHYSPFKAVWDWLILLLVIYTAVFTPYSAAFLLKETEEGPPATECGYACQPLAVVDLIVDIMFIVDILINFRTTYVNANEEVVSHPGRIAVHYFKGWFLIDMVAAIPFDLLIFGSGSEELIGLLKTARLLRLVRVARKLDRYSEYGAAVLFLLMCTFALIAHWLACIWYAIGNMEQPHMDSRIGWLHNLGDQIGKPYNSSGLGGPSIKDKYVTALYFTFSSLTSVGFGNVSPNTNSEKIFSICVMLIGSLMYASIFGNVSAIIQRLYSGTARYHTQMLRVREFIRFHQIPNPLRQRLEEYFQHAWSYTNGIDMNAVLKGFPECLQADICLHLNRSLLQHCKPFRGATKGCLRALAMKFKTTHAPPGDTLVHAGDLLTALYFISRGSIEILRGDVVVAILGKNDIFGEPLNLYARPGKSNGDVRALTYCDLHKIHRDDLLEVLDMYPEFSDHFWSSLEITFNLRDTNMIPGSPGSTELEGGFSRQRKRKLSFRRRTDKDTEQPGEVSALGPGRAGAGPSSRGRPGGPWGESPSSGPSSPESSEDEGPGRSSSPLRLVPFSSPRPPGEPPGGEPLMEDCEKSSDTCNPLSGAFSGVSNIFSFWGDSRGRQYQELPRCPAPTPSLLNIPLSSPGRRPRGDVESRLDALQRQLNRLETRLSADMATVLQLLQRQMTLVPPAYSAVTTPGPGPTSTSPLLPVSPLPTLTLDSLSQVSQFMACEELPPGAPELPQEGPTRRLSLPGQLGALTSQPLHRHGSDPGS
Sequence of UniProt P03372 (P03372 whole entry, looked up): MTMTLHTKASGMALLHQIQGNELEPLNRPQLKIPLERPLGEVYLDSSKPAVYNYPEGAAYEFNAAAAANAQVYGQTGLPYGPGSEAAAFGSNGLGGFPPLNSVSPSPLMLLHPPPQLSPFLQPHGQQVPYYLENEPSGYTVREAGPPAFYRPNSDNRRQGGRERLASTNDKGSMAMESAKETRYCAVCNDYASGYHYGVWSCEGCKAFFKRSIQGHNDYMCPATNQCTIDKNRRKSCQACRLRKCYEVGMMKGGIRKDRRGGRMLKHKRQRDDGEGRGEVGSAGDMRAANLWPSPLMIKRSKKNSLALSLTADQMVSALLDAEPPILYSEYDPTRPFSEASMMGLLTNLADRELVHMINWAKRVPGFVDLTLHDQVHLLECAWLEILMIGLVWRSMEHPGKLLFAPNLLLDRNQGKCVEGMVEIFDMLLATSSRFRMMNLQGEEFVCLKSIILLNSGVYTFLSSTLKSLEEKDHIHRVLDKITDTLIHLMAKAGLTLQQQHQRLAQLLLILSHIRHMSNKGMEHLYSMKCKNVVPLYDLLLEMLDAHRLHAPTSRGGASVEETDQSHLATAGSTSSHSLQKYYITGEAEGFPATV

With `C[N+](C)(C)CC1CO1` (stereo not drawn) the Potency [1] was “inactive” and the Potency [2] was “inactive”.
For `CC(C)(c1ccc(O)c(-c2ccccc2)c1)c1ccc(O)c(-c2ccccc2)c1`, the Potency [3] was active: 54.5 µM, the Potency [4] was active: 68.6 µM and the Potency [5] was inconclusive [inhibitor, single point]. For the same molecule, the Potency [6] was active: 54.5 µM, the Potency [7] was active: 24.3 µM and the Potency [8] was active: 49 µM. For the same molecule, the Potency [9] was inconclusive [activator, single point], the Potency [10] was active: 61.1 µM and the Potency [11] was inconclusive [single point]. For the same molecule, the Potency [12] was active: 5.03 µM.
With `Nc1ccc([N+](=O)[O-])cc1Cl` the Potency [2] was inconclusive [cytotoxic, partial curve, poor fit].
In the case of `Clc1cc(Cl)c(-c2cc(Cl)c(Cl)cc2Cl)cc1Cl`, the Potency [13] is reported as inconclusive [inhibitor, single point] and the Potency [8] is reported as “inactive”.
With `C#CCOC(=O)/C=C(C)/C=C/CC(C)CCCC(C)C` (stereo not drawn) the Potency [14] was “inactive”, the Potency [15] was “inactive” and the Potency [3] was inconclusive [inhibitor, partial curve, poor fit]. For the same molecule, the Potency [10] was “inactive” and the Potency [16] was inconclusive [inhibitor, partial curve].
With `C[C@]12CC[C@H]3[C@@H](CCC4=CC(=O)CC[C@@]43C)[C@@H]1CC[C@@H]2C(=O)O` the Potency [11] was inconclusive [rising, partial curve].
For `COc1cc(CC(C)N)c(OC)cc1Br` (stereo not drawn), the Potency [4] was inconclusive [cytotoxic], the Potency [6] was inconclusive [cytotoxic, full curve] and the Potency [8] was inconclusive [activator, single point]. The Potency [17] was inconclusive [activator, single point].
With `CCNc1nc(NC(C)C(C)C)nc(SC)n1` (stereo not drawn) the Potency [18] was “inactive”, the Potency [19] was inconclusive [cytotoxic, partial curve, poor fit] and the Potency [12] was “inactive”.
